Data as given in the supplement of paper PMC4967469.

Tests used:
Test in all cases: Viability of human cancer cell lines after 72 h of drug (GDSC screen)
CI-1040 = compound: O=C(NOCC1CC1)c1ccc(F)c(F)c1Nc1ccc(I)cc1Cl [CI-1040]; settings: top dose 10 µM; top dose inferred
Method: (§1)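 Human cancer cell lines in 384-well plates, medium with 10% serum, drug for 72 h over a 256-fold dose range (nine 2-fold or five 4-fold steps up to the top dose). Adherent lines were fixed and stained with the nucleic acid dye Syto60, suspension lines read with resazurin; signal relative to control wells, capped at 0 and 100%. One two-parameter sigmoid per drug and line, fitted in a mixed model over all curves with the slope shared within a line.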

Temozolomide = compound: Cn1nnc2c(C(N)=O)ncn2c1=O [Temozolomide]; settings: top dose 30 µM
Method: as §1

IPA-3 = compound: Oc1ccc2ccccc2c1SSc1c(O)ccc2ccccc12 [IPA-3]; settings: top dose 32 µM; top dose inferred
Method: as §1

Tubastatin A = compound: CN1CCc2c(c3ccccc3n2Cc2ccc(C(=O)NO)cc2)C1 [Tubastatin A]; settings: top dose 20 µM
Method: as §1

XL-880 = compound: COc1cc2c(Oc3ccc(NC(=O)C4(C(=O)Nc5ccc(F)cc5)CC4)cc3F)ccnc2cc1OCCCN1CCOCC1 [XL-880]; settings: top dose 5.12 µM; top dose inferred
Method: as §1

| Cell Line | AUC (CI-1040) | IC50 (CI-1040) [µM] | AUC (Temozolomide) | IC50 (Temozolomide) [µM] | AUC (IPA-3) | IC50 (IPA-3) [µM] | AUC (Tubastatin A) | IC50 (Tubastatin A) [µM] | AUC (XL-880) | IC50 (XL-880) [nM] |
| --- | --- | --- | --- | --- | --- | --- | --- | --- | --- | --- |
| 23132-87 (stomach, adherent) | 0.879 | > 10 | 0.985 | > 30 | 0.979 | > 32 | 0.948 | > 20 | 0.762 | 1890 |
| RPMI-2650 (head and neck, adherent) | 0.94 | > 10 | 0.98 | > 30 | 0.77 | 13.2 | 0.979 | > 20 | 0.583 | 551 |
| C3A (liver, adherent) | 0.93 | > 10 | 0.958 | > 30 | 0.876 | > 32 | 0.988 | > 20 | 0.871 | > 5120 |
| SW780 (bladder, adherent) | 0.734 |  | 0.924 | > 30 | 0.986 | > 32 | 0.986 | > 20 | 0.774 | 2190 |
| OE33 (oesophagus, adherent) | 0.88 | > 10 | 0.957 | > 30 | 0.912 | > 32 | 0.913 | > 20 | 0.478 | 276 |
| HuCCT1 (biliary tract, adherent) | 0.805 | 5.77 | 0.981 | > 30 | 0.831 | 23.6 | 0.877 | > 20 | 0.619 | 709 |
| ECC10 (stomach, suspension) | 0.884 | > 10 | 0.963 | > 30 | 0.787 | 14.6 | 0.929 | > 20 | 0.723 | 1420 |
| IPC-298 (melanoma, adherent) | 0.453 | 0.467 | 0.983 | > 30 | 0.886 | > 32 | 0.912 | > 20 | 0.656 | 863 |
| TGBC11TKB (stomach, adherent) | 0.808 | 4.44 | 0.992 | > 30 | 0.955 | > 32 | 0.985 | > 20 | 0.94 | > 5120 |
| H3255 (lung adenocarcinoma, adherent) | 0.908 | > 10 | 0.933 | > 30 | 0.94 | > 32 | 0.968 | > 20 | 0.871 | > 5120 |
| NCI-H2452 (mesothelioma, adherent) | 0.887 | > 10 | 0.969 | > 30 | 0.981 | > 32 | 0.984 | > 20 | 0.969 | > 5120 |
| NCI-H838 (lung adenocarcinoma, adherent) | 0.891 | > 10 | 0.985 | > 30 | 0.972 | > 32 | 0.962 | > 20 | 0.696 | 1160 |
| EFO-21 (ovary, adherent) | 0.914 | > 10 | 0.974 | > 30 | 0.909 | > 32 | 0.973 | > 20 | 0.701 | 1520 |
| SUIT-2 (pancreas, adherent) | 0.676 | 2 | 0.985 | > 30 | 0.984 | > 32 | 0.738 | 6.24 | 0.489 | 298 |
| LNZTA3WT4 (glioma, adherent) | 0.948 | > 10 | 0.948 | > 30 | 0.988 | > 32 | 0.979 | > 20 | 0.761 | 1790 |
| BICR22 (head and neck, adherent) | 0.664 | 1.93 | 0.944 | > 30 | 0.983 | > 32 | 0.966 | > 20 | 0.73 | 1620 |
| U-118-MG (glioma, adherent) | 0.865 | > 10 | 0.982 | > 30 | 0.985 | > 32 | 0.983 | > 20 | 0.598 | 619 |
| PCI-15A (head and neck, adherent) | 0.984 | > 10 | 0.986 | > 30 | 0.856 | 26.2 | 0.987 | > 20 | 0.987 | > 5120 |
| EFM-19 (breast, adherent) | 0.935 | > 10 | 0.957 | > 30 | 0.783 | 21.7 | 0.85 | > 20 | 0.726 | 2000 |
| SNU-449 (liver, adherent) | 0.916 | > 10 | 0.975 | > 30 | 0.86 | 30.9 | 0.976 | > 20 | 0.59 | 577 |
| T47D (breast, adherent) | 0.942 | > 10 | 0.97 | > 30 | 0.839 | > 32 | 0.878 | > 20 | 0.85 | > 5120 |
| WM793B (melanoma, adherent) | 0.784 | 4.73 | 0.957 | > 30 | 0.75 | 11.4 | 0.984 | > 20 | 0.619 | 704 |
| SBC-5 (small cell lung carcinoma, adherent) | 0.819 | 4.37 | 0.987 | > 30 | 0.939 | > 32 | 0.993 | > 20 | 0.676 | 890 |
| NCI-H661 (large cell lung carcinoma, adherent) | 0.914 | > 10 | 0.976 | > 30 | 0.931 | > 32 | 0.962 | > 20 | 0.608 | 675 |
| EFO-27 (ovary, adherent) | 0.758 | 4.29 | 0.95 | > 30 | 0.749 | 12.7 | 0.899 | > 20 | 0.671 | 1080 |
| PANC-08-13 (pancreas, adherent) | 0.878 | > 10 | 0.968 | > 30 | 0.982 | > 32 | 0.983 | > 20 | 0.556 | 475 |
| COLO-205 (large intestine, suspension) | 0.619 | 1.32 | 0.98 | > 30 | 0.913 | > 32 | 0.919 | > 20 | 0.712 | 1260 |

| Cell Line | AUC (CI-1040) | IC50 (CI-1040) [µM] | AUC (Temozolomide) | IC50 (Temozolomide) [µM] | AUC (IPA-3) | IC50 (IPA-3) [µM] | AUC (Tubastatin A) | IC50 (Tubastatin A) [µM] | AUC (XL-880) | IC50 (XL-880) [nM] |
| --- | --- | --- | --- | --- | --- | --- | --- | --- | --- | --- |
| CFPAC-1 (pancreas, adherent) | 0.859 | > 10 | 0.977 | > 30 | 0.979 | > 32 | 0.984 | > 20 | 0.814 | 3320 |
| NCI-H2405 (lung adenocarcinoma, adherent) | 0.944 | > 10 | 0.976 | > 30 | 0.697 | 7.63 | 0.986 | > 20 | 0.773 | 2210 |
| RH-41 (rhabdomyosarcoma, adherent) | 0.965 | > 10 | 0.992 | > 30 | 0.745 | 8.69 | 0.963 | > 20 | 0.701 | 1050 |
| SW1990 (pancreas, adherent) | 0.855 | > 10 | 0.964 | > 30 | 0.835 | 26.5 | 0.982 | > 20 | 0.864 | > 5120 |
| Hs633T (fibrosarcoma, adherent) | 0.551 | 0.84 | 0.991 | > 30 | 0.711 | 6.9 | 0.972 | > 20 | 0.558 | 446 |
| H4 (glioma, adherent) | 0.801 | 4.83 | 0.981 | > 30 | 0.987 | > 32 | 0.974 | > 20 | 0.498 | 316 |
| Ca-Ski (cervix, adherent) | 0.904 | > 10 | 0.935 | > 30 | 0.983 | > 32 | 0.922 | > 20 | 0.514 | 350 |
| KYSE-520 (oesophagus, adherent) | 0.817 | 8.23 | 0.973 | > 30 | 0.955 | > 32 | 0.962 | > 20 | 0.655 | 1000 |
| DU-145 (prostate, adherent) | 0.878 | > 10 | 0.98 | > 30 | 0.704 | 8.09 | 0.959 | > 20 | 0.729 | 1560 |
| OCUM-1 (stomach, adherent) | 0.373 | 0.267 | 0.985 | > 30 | 0.975 | > 32 | 0.985 | > 20 | 0.894 | > 5120 |
| CHL-1 (melanoma, adherent) | 0.726 | 2.63 | 0.985 | > 30 | 0.713 | 7.66 | 0.959 | > 20 | 0.533 | 391 |
| SW13 (adrenal gland, adherent) | 0.882 | > 10 | 0.986 | > 30 | 0.875 | > 32 | 0.988 | > 20 | 0.866 | 4680 |
| SU-DHL-5 (B-cell lymphoma, suspension) | 0.871 | 5.66 | 0.909 | 23.2 | 0.498 | 1.98 | 0.651 | 2.92 | 0.404 | 187 |
| CAKI-1 (kidney, adherent) | 0.829 | > 10 | 0.951 | > 30 | 0.975 | > 32 | 0.957 | > 20 | 0.545 | 450 |
| HO-1-u-1 (head and neck, adherent) | 0.834 | 6.12 | 0.978 | > 30 | 0.983 | > 32 | 0.962 | > 20 | 0.751 | 1630 |
| ACHN (kidney, adherent) | 0.738 | 3.33 | 0.971 | > 30 | 0.756 | 12.4 | 0.967 | > 20 | 0.656 | 923 |
| G-361 (melanoma, adherent) | 0.57 | 0.96 | 0.987 | > 30 | 0.889 | > 32 | 0.92 | > 20 | 0.681 | 999 |
| LN-405 (glioma, adherent) | 0.972 | > 10 | 0.982 | > 30 | 0.979 | > 32 | 0.981 | > 20 | 0.747 | 2010 |
| JHH-4 (liver, adherent) | 0.901 | > 10 | 0.976 | > 30 | 0.839 | 21.8 | 0.961 | > 20 | 0.493 | 306 |
| MDA-MB-453 (breast, adherent) | 0.958 | > 10 | 0.983 | > 30 | 0.912 | > 32 | 0.821 | 13.3 | 0.886 | > 5120 |
| NCI-H2227 (small cell lung carcinoma, semi-adherent) | 0.949 | > 10 | 0.975 | > 30 | 0.903 | > 32 | 0.955 | > 20 | 0.46 | 246 |
| MC-IXC (neuroblastoma, adherent) | 0.936 | 9.22 | 0.996 | > 30 | 0.797 | 10.8 | 0.965 | > 20 | 0.643 | 709 |
| SKN-3 (head and neck, adherent) | 0.742 | 3.54 | 0.95 | > 30 | 0.97 | > 32 | 0.979 | > 20 | 0.708 | 1390 |
| PE/CA-PJ15 (head and neck, adherent) | 0.666 | 1.88 | 0.955 | > 30 | 0.89 | > 32 | 0.985 | > 20 | 0.682 | 1080 |
| KP-3 (pancreas, adherent) | 0.893 | > 10 | 0.965 | > 30 | 0.975 | > 32 | 0.966 | > 20 | 0.62 | 733 |
| 647-V (bladder, adherent) | 0.88 | > 10 | 0.909 | > 30 | 0.875 | 31.7 | 0.986 | > 20 | 0.953 | > 5120 |

IC50 is the fitted dose that halves viability relative to control wells, and lower means more sensitive; where the fit passes the top or lowest dose, that dose stands as a limit. AUC is the area under the same curve over the 256-fold range up to the top dose, as a fraction; values near 1 show little effect. For some of these results: Where the top dose is marked as inferred, it was derived from the fitted curves, not read from the paper.
